Assay results taken from PMC4336329 (PLoS ONE, 2015).
Among all 310,000 compounds or so, about 14,000 (4.5%) showed an effect of 50% or more. The effect is printed as a negative number. The list shows a part of the results.

Each compound was assayed against human ether-à-go-go-related gene (hERG) potassium channel (human, UniProt Q12809) (assay: primary screen, population patch clamp on CHO cells stably expressing hERG).
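Further: peak tail current of the secondary pulse compared with the same well before compound.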

Chain of human ether-à-go-go-related gene (hERG) potassium channel (Q12809 whole entry, looked up): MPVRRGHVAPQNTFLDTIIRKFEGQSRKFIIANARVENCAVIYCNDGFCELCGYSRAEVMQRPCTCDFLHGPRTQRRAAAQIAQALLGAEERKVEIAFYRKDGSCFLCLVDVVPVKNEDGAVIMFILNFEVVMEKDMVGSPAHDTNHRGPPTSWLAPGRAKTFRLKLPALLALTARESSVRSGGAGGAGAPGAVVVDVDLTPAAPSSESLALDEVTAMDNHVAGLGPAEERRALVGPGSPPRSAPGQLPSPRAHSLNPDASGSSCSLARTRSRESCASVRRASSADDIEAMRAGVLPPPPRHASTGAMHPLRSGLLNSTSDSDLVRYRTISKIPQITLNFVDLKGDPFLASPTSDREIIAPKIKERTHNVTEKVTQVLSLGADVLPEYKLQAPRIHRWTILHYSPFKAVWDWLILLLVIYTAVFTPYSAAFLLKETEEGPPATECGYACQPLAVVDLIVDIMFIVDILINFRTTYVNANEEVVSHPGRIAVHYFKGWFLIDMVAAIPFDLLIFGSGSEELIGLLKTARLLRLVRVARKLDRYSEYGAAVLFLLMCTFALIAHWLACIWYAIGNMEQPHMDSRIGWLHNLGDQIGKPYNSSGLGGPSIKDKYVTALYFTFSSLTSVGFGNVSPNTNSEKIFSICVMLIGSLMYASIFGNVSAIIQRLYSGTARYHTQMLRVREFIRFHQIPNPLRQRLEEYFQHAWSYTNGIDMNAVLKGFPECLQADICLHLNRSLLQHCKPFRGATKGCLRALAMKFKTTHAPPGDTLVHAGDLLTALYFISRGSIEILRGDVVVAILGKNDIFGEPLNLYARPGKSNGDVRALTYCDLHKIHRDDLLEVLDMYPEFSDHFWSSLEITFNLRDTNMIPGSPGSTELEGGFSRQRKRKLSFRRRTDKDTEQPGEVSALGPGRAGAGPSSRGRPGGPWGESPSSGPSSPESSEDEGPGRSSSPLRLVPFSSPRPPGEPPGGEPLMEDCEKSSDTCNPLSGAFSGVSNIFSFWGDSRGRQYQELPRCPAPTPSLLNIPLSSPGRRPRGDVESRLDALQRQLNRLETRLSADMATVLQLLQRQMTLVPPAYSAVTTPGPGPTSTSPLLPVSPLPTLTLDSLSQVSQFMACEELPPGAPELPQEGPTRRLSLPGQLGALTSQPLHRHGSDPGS

Row | SMILES | hERG current change (%, negative = inhibition) at 10uM [%]
1 | Cc1cccc2cc(C#N)c(SCC(=O)NNC(=O)Cc3ccccc3)nc12 | -8.94
2 | CCC(C(=O)O)N1C(=O)/C(=C/c2cccn2C)SC1=S (centres unmarked) | 12.9
3 | CC(=O)Nc1ccc(NS(=O)(=O)c2ccc3c(c2)oc(=O)n3C)cc1 | 20.2
4 | CCN(CC(=O)Nc1c(F)cccc1F)C(=O)C1CCN(C(=O)c2ccc(F)cc2)CC1 | 4.59
5 | O=[N+]([O-])/C(N=Nc1ccccc1)=N\Nc1ccccc1 | 29.9
6 | Cc1cc(C(=O)N2CCCC(Nc3ccc(C(C)C)cc3)C2)nn1C (centres unmarked) | -1.89
7 | CC(=O)Nc1ncc(Cc2ccc(Cl)cc2Cl)s1 | 11.1
8 | CC(=O)c1ccc(NC(=O)CSc2ccc3nnc(-c4cccnc4)n3n2)cc1 | -28.8
9 | Cl.Fc1ccccc1COc1ccc(Br)cc1CNCC1CCCO1 (centres unmarked) | -68.3
10 | Cc1ccc(-n2c(O)c(/C=N/NC(=O)c3ccncc3)c(=O)[nH]c2=O)cc1 | 1.07
11 | COc1ccc(CCN2CC(C(=O)O)CC2=O)cc1 (centres unmarked) | -5.27
12 | CCN(CC)c1ccc(NC(=O)COc2ccccc2C#N)cc1S(=O)(=O)Nc1ccc(OC)cc1 | 13
13 | CC(=O)N1CCN(c2ccc(NC(=O)c3ccc([N+](=O)[O-])o3)cc2Cl)CC1 | -50
14 | Cc1[nH]c2ccccc2c1/C=C/c1nc2ccccc2c(=O)n1-c1cccc([N+](=O)[O-])c1 | 10.3
15 | CCn1c(COc2ccccc2C)nnc1SCC(=O)N1CCCCC1 | 2
16 | Cc1[nH]c2ccccc2c1CCNCc1ccco1.Cl | 12.1
17 | CCn1c(=O)cc(SCC(=O)N2CCN(C)CC2)c2ccccc21 | 6.22
18 | COc1cc(C2C(C(=O)OC(C)C)=C(C)Nc3ncnn32)cc(OC)c1OC (centres unmarked) | -31.8
19 | COc1ccc(Cl)cc1C(=O)NNC(=S)NC1CCCC1 | 6.8
20 | CNc1ccc(/C=C/C(=O)c2ccc(C)cc2)cc1[N+](=O)[O-] | -6.99
21 | CCOC(=O)C1CCN(C(=O)Cn2nc(C)n3nc(-c4ccc(CC)cc4)cc3c2=O)CC1 | 5.33
22 | CC1CCN(C(=O)C2CCN(S(=O)(=O)c3ccc4c(c3)CC(C)N4C(=O)C3CC3)CC2)CC1 (centres unmarked) | -8.47
23 | O=[N+]([O-])c1cccc(-n2cccc2/C=N/Nc2nc(N3CCCCC3)nc(N3CCCCC3)n2)c1 | 14.6
